Some of the results follow. The energies were worked out here from pooled read counts, against the library average; single values are noisy.
biological target: T1, Pho4 (S. cerevisiae) (UniProt P07270); test: relative binding free energy (BET-seq); higher = weaker binding; conditions: reference: library average
T1 sequence: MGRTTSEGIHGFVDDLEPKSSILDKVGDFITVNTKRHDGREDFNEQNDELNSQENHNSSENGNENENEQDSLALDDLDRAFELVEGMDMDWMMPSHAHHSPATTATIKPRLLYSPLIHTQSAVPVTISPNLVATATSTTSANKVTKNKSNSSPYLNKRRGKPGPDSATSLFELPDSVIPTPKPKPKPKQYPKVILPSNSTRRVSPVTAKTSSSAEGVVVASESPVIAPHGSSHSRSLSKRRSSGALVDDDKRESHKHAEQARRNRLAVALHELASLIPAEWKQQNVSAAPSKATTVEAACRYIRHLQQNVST

Sequence | relative binding free energy [kcal/mol]
GATCGCACGTGGTTGT | -0.09
TTTCACACGTGGAGAT | 0.12
GTTTTCACGTGGTATA | 0.34
TAGATCACGTGAGCGG | 0.35
TAATACACGTGCGTGT | -0.02
GGTATCACGTGTAGAT | 0.26
GGTGGCACGTGCTGAT | -0.13
GTTTACACGTGGGCGT | -0.02
TTTGACACGTGTTTCA | 0.07
GAGGACACGTGGTAAT | 0.08
AGTGACACGTGAAGGG | 0.09
TCCTTCACGTGGGAGT | 0.33
GGGGCCACGTGTAGAG | 0.05
GTTGGCACGTGTCGTG | -0.01
CTAGTCACGTGGGGCA | 0.02
TATTTCACGTGGGTCA | 0.17
CTGTGCACGTGTCATG | -0.03
AGGGACACGTGATGAT | 0.13
TCGTGCACGTGTTCGG | 0.16
AAGAGCACGTGGGATA | -0.07
ATATACACGTGCATGT | 0.09
GACTTCACGTGTGGTG | 0.3
AATTCCACGTGGGTTG | -0.07
TCGGTCACGTGAGTAT | 0.29
AGGAACACGTGATGGA | 0.34
GGATACACGTGAGAGT | 0.32

Sequence | relative binding free energy [kcal/mol]
TGTATCACGTGAATTA | 0.4
GAGGTCACGTGTGTTC | 0.16
GGTTGCACGTGGACAT | 0.01
GTAGGCACGTGAAGGG | 0.14
TTAATCACGTGGGAAT | -0.01
GTTGGCACGTGACATT | 0.03
TTGCTCACGTGACGGT | 0.33
GCTGTCACGTGTATGG | 0.23
ATAATCACGTGAGTTT | 0.37
TTGGCCACGTGTGGAC | 0.02
TAGGTCACGTGCGGCG | -0.13
GAGAGCACGTGTGTCG | -0.05
TTTCGCACGTGAAGTT | 0.23
AGGGGCACGTGTCACG | -0.13
CGATGCACGTGAGTTT | 0.23
TTCTTCACGTGTTAGA | 0.06
GATGACACGTGGGAAG | -0.04
GTGGTCACGTGTTTAA | 0.07
TGAGACACGTGGTTGC | -0.12
TATTCCACGTGTCGGG | 0.18
CTGTACACGTGGTGGG | 0.04
CTAATCACGTGGTGTG | 0.05
TGTAGCACGTGGGGTG | -0.21
GGTATCACGTGTAGGG | 0.2
TAGAGCACGTGCGCGT | -0.22
AATGACACGTGTGATT | 0.08

Sequence | relative binding free energy [kcal/mol]
CGTCGCACGTGTGTGG | -0.07
TCATGCACGTGGTTTA | -0.01
TTGCTCACGTGTTAGT | 0.36
TTTTACACGTGAGGTG | 0.32
GTTAACACGTGGGACT | 0.09
ATGGCCACGTGACTGG | 0.14
GGTAGCACGTGGGGAA | -0.03
CTGGTCACGTGGGCGC | 0.01
GTATACACGTGGGTGA | -0.12
GGTGTCACGTGTGCTA | 0.07
AGTTTCACGTGTGTTA | 0.22
GTGGGCACGTGTAATA | 0.13
GGGGGCACGTGATAGG | 0.05
TCATGCACGTGTTGTT | 0.06
GTTGTCACGTGATGGC | 0.39
TGTGTCACGTGAGAGT | 0.21
ATTCGCACGTGGGCGT | -0.07
TGCATCACGTGTTGGC | 0.29
GTGCACACGTGGGGGA | -0.11
TTCTTCACGTGGATGT | 0.23
AAGATCACGTGTAAGG | 0.22
TGCATCACGTGTTATG | 0.01
AGTCGCACGTGTGTGG | 0.02
CTAGTCACGTGGTCGT | -0.06
TGTGTCACGTGGTAAA | 0.06
CGGATCACGTGGCAGG | 0.17

Sequence | relative binding free energy [kcal/mol]
TGGATCACGTGGATGG | 0.23
ATGTGCACGTGAACGG | 0.03
TTGTGCACGTGGCCCG | -0.11
TCAAACACGTGTGGGG | 0.09
AAAGTCACGTGGGGCT | -0.03
TGAGGCACGTGGTCGT | -0.17
GATTTCACGTGGGAAG | 0.26
TTTGACACGTGGATCT | -0.08
GGGAGCACGTGATGTT | 0.2
GCAAGCACGTGTTGGT | -0.12
GGCGTCACGTGAGGTA | 0.34
CGCGACACGTGTTTGG | 0.09
GTAATCACGTGGGCTC | 0.28
TTCATCACGTGCTTTT | 0.22
GAAGCCACGTGTGTGT | -0.07
TGTCACACGTGAGTGA | 0.28
GTTGGCACGTGTCAAG | -0.1
TTCATCACGTGCCGTT | 0.28
AAAATCACGTGGGGTG | 0.09
CGTGCCACGTGTTTTG | -0.05
ATCGTCACGTGGGAAG | 0.02
TAGGTCACGTGGCCTG | -0.1
TGAGCCACGTGGGGCG | -0.17
TGGAGCACGTGAAAAG | 0.2
GTATACACGTGAAGTT | 0.27
AAGTGCACGTGAGGTA | 0.14

Sequence | relative binding free energy [kcal/mol]
AGAAGCACGTGAAGAG | 0.41
GGGGGCACGTGCTGCG | -0.09
ATATTCACGTGGTGAA | 0.15
GTCATCACGTGTTTGT | 0.15
GGTGACACGTGAAAGG | 0.33
TTTGGCACGTGTTCGA | -0.25
AAGTTCACGTGTGATA | 0.17
TAAGACACGTGTTGGG | 0.01
AAAATCACGTGCGTGT | 0.23
CAGGTCACGTGCTGGG | 0.07
CATGGCACGTGCGGGT | -0.34
TGGTTCACGTGCTAGG | 0.13
CTGGTCACGTGATGTG | 0.14
AGCAGCACGTGAATGT | 0.32
ATGGGCACGTGCGCGG | -0.27
TATTTCACGTGTGAAT | 0.32
CAGGCCACGTGGGGTG | -0.32
TTTGTCACGTGTCGTA | 0.1
CGAAGCACGTGTATGG | 0
ATTAGCACGTGGCTGG | -0.09
TGCTGCACGTGGTTTT | -0.06
GACTGCACGTGGAGGT | 0.1
TCAGTCACGTGGGGAT | -0.03
ATTGGCACGTGTCATA | -0.17
TGTAACACGTGATACG | 0.25
AGAGGCACGTGTGTAG | -0.11

Sequence | relative binding free energy [kcal/mol]
GTGGCCACGTGTGTGA | 0.05
AAGGACACGTGTTATT | 0.04
AGGAGCACGTGTTGTA | 0.05
AGTTACACGTGTAGCG | 0.1
TGGATCACGTGCGTAG | 0.06
TTGCGCACGTGTAGTA | -0.08
AGTCGCACGTGAGAGT | 0.16
TGTGGCACGTGCGGCT | -0.1
TCATGCACGTGTTATT | -0.02
TAAGTCACGTGCATTG | 0.09
ATTCGCACGTGGGGGG | -0.17
CGTGGCACGTGGTTCA | -0.11
AGACTCACGTGGGCTG | 0.24
GGAGGCACGTGGGGAC | -0.21
TTAATCACGTGGCGTT | -0.01
TTGAACACGTGGGAAG | -0.08
GATAACACGTGGGGAG | -0.02
ATTCGCACGTGGGGCG | -0.24
GGATTCACGTGAAGGG | 0.37
CTGGGCACGTGGCTTT | -0.26
AGTAGCACGTGCCGGT | -0.11
GGTGACACGTGTGTCT | 0.04
TGTGACACGTGGAGCT | -0.06
TTTACCACGTGTGGGC | 0.05
ATGGGCACGTGACGGA | -0.14
TCGTTCACGTGGAGTT | 0.23

Sequence | relative binding free energy [kcal/mol]
TTGAACACGTGGTTAG | 0.11
ATTTGCACGTGCTGGG | -0.02
TGCGGCACGTGTGGAA | -0.01
TTTGTCACGTGAGAGC | 0.38
CGTTTCACGTGATTAG | 0.33
TTTAACACGTGACTTT | 0.13
TAGGACACGTGGGTGA | -0.09
GGGTGCACGTGCATGT | 0
TCTTACACGTGTAAGT | 0.24
GTATACACGTGCAGGG | -0.06
GAGTTCACGTGGAAGT | 0.38
GTTGGCACGTGTCGAA | 0.05
GCGTCCACGTGTTGTT | 0.1
TCTAACACGTGGGTAG | -0.09
GCTGTCACGTGTGGCG | 0.18
GGGGTCACGTGTTAAG | 0.18
ATAAGCACGTGGTCGT | -0.28
CTGTGCACGTGGAATT | 0.06
GTGAGCACGTGGGTTG | -0.16
TCATTCACGTGTATGT | 0.12
TGAAACACGTGGTCTT | 0.09
AGGCTCACGTGCAGGG | 0.21
AGGTTCACGTGTCATG | 0.24
TTTATCACGTGCTTAT | -0.08
TTGTACACGTGTTTAA | -0.08
TATATCACGTGCTGAT | 0.09

Sequence | relative binding free energy [kcal/mol]
AAGTTCACGTGGGTCA | -0.02
TCGTACACGTGTTAGT | 0.07
TGAGGCACGTGGCAGT | -0.3
TGCGTCACGTGTAATT | 0.21
CTCTGCACGTGTGTTT | 0.04
GATGTCACGTGGTGTG | 0.07
TTGTGCACGTGGTGCG | -0.07
GGGAGCACGTGGGGAA | -0.07
CTAGGCACGTGGTAAT | -0.17
ATTGGCACGTGGTCTG | -0.22
CTGTACACGTGGTCGG | -0.05
GTCGACACGTGTATGT | 0.08
CTTGGCACGTGTCGTG | -0.04
TGTGTCACGTGCTTAG | 0.04
AGAGGCACGTGGCGTA | -0.16
TGTTTCACGTGCGCTG | 0.23
TTAATCACGTGCATGT | 0.05
ATTGTCACGTGTGCAG | 0
GTTTTCACGTGGTTAC | 0.36
AAGTACACGTGGTTGT | -0.02
TGGTGCACGTGGATAT | -0.03
TGCTTCACGTGTTTGC | 0.24
TGGGACACGTGGGTGA | -0.07
TGTACCACGTGGTAAG | -0.07
GTGATCACGTGAGGGA | 0.33
ATTTGCACGTGAATAC | 0.36

Sequence | relative binding free energy [kcal/mol]
TGACGCACGTGAGGTT | 0.18
AGTAGCACGTGAATGT | 0.17
CTGGTCACGTGGTAGA | 0.06
AAATGCACGTGGTATT | -0.1
TAGATCACGTGGTTTC | 0.21
CGAGTCACGTGAGGGG | 0.37
GAATGCACGTGTCGGT | 0.14
AGTGACACGTGTTTAA | -0.09
AGGAGCACGTGTTCGT | -0.21
ATGGGCACGTGAGTGG | 0.18
TTGGGCACGTGTATAG | -0.08
TTGGACACGTGCGTGG | -0.05
AATTTCACGTGGGTGC | 0.2
GTATTCACGTGTCGAG | 0.22
GATATCACGTGAGTAT | 0.47
CGGAGCACGTGAGGGC | 0.15
TGCAGCACGTGTTGGA | -0.03
AAATTCACGTGGTTTT | 0.28
TTTTGCACGTGAAATC | 0.33
TTAAGCACGTGTTTAA | -0.16
CGGGTCACGTGTGGGC | 0.22
GTGAGCACGTGTATAG | -0.09
